Data taken from PubChem BioAssay AID1963867 (Molecular Pharmacology Branch, DTP, NCI, 2024).
Some entries of the source have several records that differ or are many. The other results are left out here. The source may hold further records. The records of an entry are repeats across runs, samples, wells, individuals or studies. Counts like (3×) give the number of equal values in this list. Marks such as [2022-09] give the month of the run.

System: KRAS-mutant PDC tumor spheroid with HUVEC/MSC, viability
Assay: Anticancer human tumor 327498-153-R-J2-PDC patient-derived uterine carcinosarcoma cell line growth inhibition [KRAS2]
Settings: for IC50: compound alone; for viability, T/C: stronger effect = lower value
Text: Multicellular complex tumor spheroid response to RAS pathway inhibitors in combination with a targeted agents in patient-derived cell lines with oncogenic KRAS variants from multiple cancer types
A high-throughput screen of multi-cell type tumor spheroids was designed to identify active combinations of targeted small molecules and KRAS pathway inhibitors. Complex spheroids include a stromal component modeled by human endothelial cells (HUVEC) and fibroblasts modeled by human mesenchymal stem cells (MSCs). The concentration ranges selected for each drug and investigational agent were based upon clinically achievable concentrations if the clinical Cmax of the agent was known.
Compounds. The drugs and investigational agents: BI-3406 (NSC825286), BAY-293 (NSC824723), batoprotafib (TNO155; NSC825523), sotorasib (AMG 510; NSC818433), MRTX1257 (NSC819558), elimusertib (BAY 1895344; NSC800525), molibresib (GSK525762; NSC774829), temuterkib (LY3214996; NSC803410), venetoclax (NSC766270), alisertib (NSC759677), olaparib (NSC753686), talazoparib (NSC767125), erdafitinib (NSC781556), ipatasertib (NSC767898), cabozantinib (NSC761068), nintedanib (NSC756659), abemaciclib (NSC768073), docetaxel (NSC628503), trametinib (NSC758246), and sapanisertib (NSC764658) were obtained from the National Cancer Institute (NCI) Developmental Therapeutics Program Chemical Repository. The FDA-approved anticancer drug set is available from the Developmental Therapeutics Program. […] The stock solutions were prepared in dimethyl sulfoxide (DMSO, Sigma-Aldrich, St. Louis, MO, cat. D2650) at 800-fold the tested concentration and stored at -70 degrees C prior to their use. All drugs and investigational agents were tested over a range starting from a high concentration at or near the clinical Cmax and decreasing in half-log increments. If the clinical Cmax for an agent had not been determined, the highest concentration tested was 10 microM.
Cell Culture. All cells were maintained in an incubator at 37 degrees C and 5% CO2 with 95% humidity. The PDC lines were cultured according to standard operating procedures established by the NCI PDMR (https://pdmr.cancer.gov/sops/default.htm). Briefly, all PDCs were thawed and cultured in Matrigel-coated flasks prepared with a working solution of 1X Ham's F-12 nutrient mix, without supplementation (Invitrogen, Waltham, MA, cat. 11765054), 100 U/mL penicillin-streptomycin (Invitrogen, cat. 15140122), and 2.5% Matrigel (Corning Inc., Corning, NY, cat. 354248) for the first three passages. All PDCs were cultured in complete DMEM/F-12 media containing advanced DMEM/F-12 (Invitrogen, cat. 12634028), 4.9% defined fetal bovine serum, heat inactivated (HyClone Laboratories Inc., Logan, UT, cat. SH30070.03HI), 389 ng/mL hydrocortisone (Sigma-Aldrich, cat. H4001), 9.7 ng/mL human EGF recombinant protein (Invitrogen, cat. PHG0313), 23.4 microg/mL adenine (Sigma-Aldrich, cat. A2786), 97.3 U/mL penicillin-streptomycin (Invitrogen, cat. 15140122), 1.9 mM L-glutamine (Invitrogen, cat. 25030081), and 9.7 microM Y-27632 dihydrochloride (Tocris Bioscience, Bristol, United Kingdom, cat. 1254). The PDCs were cultured in complete DMEM/F12 media without 9.7 microM Y-27632 dihydrochloride for at least two passages prior to the screen. The established cell line HOP-62 was cultured in RPMI 1640 medium, HEPES (Invitrogen, cat. 22400105) with 10% defined fetal bovine serum (HyClone Laboratories Inc., cat. SH30070.03) and 2 mM L-glutamine (Invitrogen, cat. 25030081). The pooled donor HUVEC were cultured in endothelial cell growth medium 2 (PromoCell, Heidelberg, Germany, cat. C-22011) and the hMSC were cultured in mesenchymal stem cell growth medium 2 (PromoCell, cat. C-28009). For all experiments, HUVEC and hMSC were used at passages </=5, while the malignant cell lines were used at passages </=15. […]
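Note: spheroids exposed to agents for seven days before reading.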
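Throughout, for viability, T/C: 100% = DMSO vehicle wells so lower means fewer viable cells.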

Row | SMILES | IC50 | viability, T/C (compound alone 3.16 µM) | viability, T/C (compound alone 10 µM) | viability, T/C (compound alone 0.01 µM) | viability, T/C (compound alone 0.0316 µM) | viability, T/C (compound alone 1 µM) | IC50 (run of 07/12/2021) | viability, T/C (compound alone 0.1 µM) | viability, T/C (compound alone 0.316 µM) | IC50 (run of 07/19/2021) | IC50 (run of 07/26/2021)
1 | CCNC(=O)CC1N=C(c2ccc(Cl)cc2)c2cc(OC)ccc2-n2c(C)nnc21 (stereo unspecified) | 8.59 µM, > 10 µM, 8.65 µM, 839 nM, 9.32 µM | 61.1, 52.4, 57.6, 32.7, 58.2% | 47.7 (2×), 55.3, 21.9, 48.4% |  |  |  |  |  |  |  | 
2 | CC1COCCN1c1cc(-c2ccnn2C)c2ccnc(-c3ccn[nH]3)c2n1 (stereo unspecified) | 43.2 nM, 48.3 nM, 54 nM, < 10 nM, 32.6 nM |  |  | 84.6, 96.4, 92.1, 7.53, 92% | 61.4, 68.6, 79.1, 6.4, 50.9% |  |  |  |  |  | 
3 | CNCc1ccccc1-c1csc(C(C)Nc2nc(C)nc3cc(OC)c(OC)cc23)c1 (stereo unspecified) |  | 105, 84.6, 68.3, 7.39, 33.9, 47.3, 10.4, 0.12, 0.11, 0.09 (2×), 19, 0.87, 0.15, 0.1% |  |  |  | 105, 106, 84.9, 66.3, 79, 79.8, 61.7, 72.1, 73.5, 70.9, 74.7, 76.8, 77.4, 72.4, 75.5, 75.4, 66.8% | 5.47, 5.12, 4.31, 1.37, 2.1, 2.96 µM |  |  |  | 
4 | COc1cc2nccc(Oc3ccc(NC(=O)C4(C(=O)Nc5ccc(F)cc5)CC4)cc3)c2cc1OC | 2.37, 2.2, 2.9, 10, 2.98 µM | 34, 31.1, 46.2, 2.04, 47.4% | 7.04, 6.18, 3.41, 103, 4.4% |  |  | 101, 91.1, 108, 45, 97.3% |  |  |  |  | 
5 | COC(=O)c1ccc2c(C(=Nc3ccc(N(C)C(=O)CN4CCN(C)CC4)cc3)c3ccccc3)c(O)[nH]c2c1 | 1.56 µM, 1.45 µM, 4.15 µM, > 10 µM | 32.9, 32.5, 23.8, 51, 53.6% | 10.4, 8.17, 13.1, 43.9, 53.1% |  |  | 59.2, 59.8, 63, 70.2, 87% |  |  |  |  | 
6 | COc1cc2nc(C)nc(NC(C)c3cc(N)cc(C(F)(F)F)c3)c2cc1OC1CCOC1 (stereo unspecified) |  |  | 69.8, 56.3, 103, 55.5, 57.3 (2×), 49.8, 54.5, 48.2, 53.5, 47, 55, 62.5, 69.6, 55.3, 53, 54.6% |  |  | 105, 94.9 (2×), 74.5 (2×), 77.2, 60.2, 67.5, 69.2, 79.4, 68.5, 65.9, 85.4, 65.7, 83.6, 77% (2×) |  | 86.5, 88, 82, 92.3, 86.2, 88.3, 60.3, 72.1, 64.2, 87.6 (2×), 76.9 (2×), 81.3, 81.2, 80.7, 77.3% | 64.5, 68.8, 78.1, 76.1, 83, 88.6, 60.2, 68, 67.9, 74.8, 71.5, 78.6, 77.5, 77.1, 73.8, 73.5% |  | 
7 | CC1OCC2(CCN(c3cnc(Sc4ccnc(N)c4Cl)c(N)n3)CC2)C1N (stereo unspecified) |  | 18.3, 39.4, 39.7, 38.6, 37.2, 28.9 (2×), 31.3, 38.8, 32.4, 32.7, 40.1, 45.7, 40.3, 32.2, 35.1, 31, 35.5, 28.4, 43.1% |  |  |  | 98.6, 99.8, 102, 46.6, 48.8, 43.5, 36.2, 45.1, 40.9 (2×), 43.4, 35.6, 48.1, 48.5, 54.8, 44.3, 38.1, 39.9, 43, 59% | 1.84 µM, 2.35 µM, 2.44 µM, 749 nM, 912 nM, 700 nM |  |  |  | 
8 | COc1cc(OC)cc(N(CCNC(C)C)c2ccc3ncc(-c4cnn(C)c4)nc3c2)c1 | 4.54 µM, 4.62 µM, 4.78 µM, 113 nM, 4.71 µM | 72.7, 77.9, 81, 0.47, 76.2% |  |  |  | 86.9, 73.5, 82.8, 2.1, 78.5% |  |  | 63.5, 75.5, 80.8, 7.76, 79.6% |  | 
9 | C=CC(=O)N1CCN(c2nc(OCC3CCCN3C)nc3c2CCN(c2cccc4cccc(C)c24)C3)CC1CC#N (stereo unspecified) |  | 91.8, 0.19 (3×), 0.18 (2×), 4.54, 0.17, 1.14, 0.43, 0.36, 0.62, 1, 1.17, 1.23, 1.04% |  |  | 73.7, 75.5, 75.8, 54.7, 73.5, 81.7, 57.5, 63.5, 62.2, 77.9, 72.1, 67.5, 71.4, 67.7, 71.7, 66.5, 55.4% |  | > 3.16 µM, 1.04 µM, 1.16 µM, 425 nM, 1.09 µM, 862 nM | 62.7, 67.5, 64.2, 56.2, 66.4, 71.4, 61.3, 59.2, 55.6, 98.9, 54.4, 53.8, 56.7, 59, 61.4, 46.5, 56.5% |  | 788 nM and 387 nM, 1.12 µM, 651 nM, 230 nM [2021-07] | 623 nM, 1.16 µM, 220 nM, 870 nM, 223 nM, 390 nM
10 | C=CC(=O)N1CCN(c2nc(=O)n(-c3c(C)ccnc3C(C)C)c3nc(-c4c(O)cccc4F)c(F)cc23)C(C)C1 (stereo unspecified) |  | 65.4, 91.4, 62.4, 47.8, 62.2, 33.5, 62.7, 49.1, 61.9, 57.7, 57.9, 56.7, 52.3, 60.5, 58.5, 54, 60.2% | 58.9, 111, 49.3, 36.8, 46.2, 22.7, 52.4, 35.2, 50.3, 39.4, 43.5, 55.3, 46.7, 45.9, 49.4, 46.6, 44.6% |  |  | 63, 102, 61.2, 48.5, 58.5, 55, 57.3, 53.1, 63.4, 57.7, 54.7 (2×), 63.7, 60.1, 60 (2×), 56% |  | 71.8 (2×), 93.2, 54.5, 62.9, 72.6, 66.5, 55.5, 59, 56.1, 69.8, 65.1, 70.7, 65.3, 60.8, 63.1, 60.1% | 59.2 (2×), 95.7, 58.6, 55.7, 61.4, 64, 61.2, 61.3, 56.8, 54.9, 63.2, 60, 60.7, 52.8, 62, 54.4% | > 10 µM, 2.58 µM, 4.89 µM, 4.54 µM | > 10 µM, 5.27 µM, 7.16 µM, 6.05 µM
